Reference: the BET-seq Pho4 binding data (Le et al. 2018)
Some of the results follow. Values were computed here from the reads of four pooled replicates and scatter widely.

Target: T1, Pho4 (S. cerevisiae) (UniProt P07270)
T1 sequence: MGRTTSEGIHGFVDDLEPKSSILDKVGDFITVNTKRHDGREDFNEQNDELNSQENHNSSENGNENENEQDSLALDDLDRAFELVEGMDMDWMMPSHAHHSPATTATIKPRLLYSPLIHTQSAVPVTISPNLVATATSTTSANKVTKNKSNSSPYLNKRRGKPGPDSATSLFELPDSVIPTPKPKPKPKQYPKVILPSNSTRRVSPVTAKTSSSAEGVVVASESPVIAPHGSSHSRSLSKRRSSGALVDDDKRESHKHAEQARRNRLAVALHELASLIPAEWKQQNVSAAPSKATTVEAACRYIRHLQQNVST
Test: relative binding free energy (BET-seq); higher = weaker binding
Settings: reference: library average

Sequence	relative binding free energy [kcal/mol]
TGACTCACGTGTCGTG	0.11
GATAGCACGTGCATGG	0.02
AAAGACACGTGGGTGT	-0.02
TCTTGCACGTGGGGCA	-0.08
TGGTACACGTGGTTTT	0.2
AGTTGCACGTGGTCAG	-0.11
TATATCACGTGTATAT	0.14
AGTTGCACGTGGTGTG	-0.02
TAGGGCACGTGAATTT	0.22
GTGTGCACGTGTTGGT	0.06
GGAGGCACGTGGTAGT	-0.15
CTGGGCACGTGGGTGG	-0.31
GGCTTCACGTGGTCGT	0.07
ATAAACACGTGGGGTG	-0.18
GGACGCACGTGGTCGG	0.03
GGTTGCACGTGTGATT	0.13
GAGGTCACGTGGATTG	0.08
CGTGGCACGTGAAGTG	0.09
AGTTTCACGTGATGTA	0.35
GATTGCACGTGAGATG	0.3
CTGGGCACGTGTGTGC	-0.34
GGTTGCACGTGTTAAT	0.11
CAAGGCACGTGTAGTT	0
GGAGTCACGTGTAGAG	0.24
GTGCACACGTGGTCGG	0.03
CTGGTCACGTGGGGAT	0.08

Sequence	relative binding free energy [kcal/mol]
TTAGACACGTGATGTA	-0.02
TTATTCACGTGATAGA	0.31
TGATGCACGTGTGAAA	-0.06
GGAGCCACGTGAGGTT	0.24
GGGGGCACGTGTGTAC	0
GAAATCACGTGGGCGG	0.25
CATTTCACGTGGTAGA	0.32
GTTTACACGTGCTGAT	0.14
ACAGGCACGTGTTGGG	-0.16
AGGTACACGTGGGTCA	-0.01
TTGCGCACGTGGGCAA	-0.2
TATCACACGTGTTGGC	0.25
GTGGACACGTGGGATA	0.02
TTTCACACGTGATGGT	0.09
TTGGGCACGTGATTGA	0.12
AAGTTCACGTGTAGAG	0.31
TGTACCACGTGATGTG	0.12
TGTATCACGTGAAAAT	0.35
ATAGCCACGTGTTGTG	-0.11
ATGTACACGTGACGTG	0.22
TTGCACACGTGTGTTA	0.08
TAGTGCACGTGTTAAG	0
ATTAACACGTGCTTGG	-0.13
AAATGCACGTGGGCGT	-0.18
AGGGTCACGTGTGGAA	0.16
TATTTCACGTGCGTAG	0.31

Sequence	relative binding free energy [kcal/mol]
GCTTACACGTGGAGTG	0.03
CGAGTCACGTGGGAGC	0.09
GTACGCACGTGGTATG	-0.21
CGGGGCACGTGGTATC	-0.17
ACTTACACGTGTTGTT	0.08
TTAATCACGTGAGGAG	0.23
TTATTCACGTGTAAAA	0.22
GCGGGCACGTGCCGGT	-0.12
GGTTTCACGTGTCGAA	0.38
TCTGACACGTGGGGCT	-0.04
TCGTTCACGTGCGGTG	0.29
GGAGCCACGTGTTAGG	-0.01
GTGAGCACGTGGTTCG	-0.01
GGGAACACGTGTACGT	0.1
GTGCGCACGTGTTGCG	-0.06
CTTATCACGTGATGTG	0.12
GCGGTCACGTGCGTGT	-0.11
TAGTACACGTGTGTTG	-0.04
CTTGGCACGTGGAAGG	-0.03
GGGAGCACGTGTGTTG	0.01
TGTAACACGTGGAGAG	0.09
TTAGTCACGTGTAATG	0.19
TGAGTCACGTGACGTT	0.07
TGCTCCACGTGGGATT	0.05
AGTGCCACGTGTGTGA	-0.11
GAGATCACGTGGAGGT	0.15

Sequence	relative binding free energy [kcal/mol]
ATTAACACGTGGGATG	-0.12
GTGGGCACGTGAAGGT	0.24
TGGTACACGTGTTTAT	-0.03
GGTATCACGTGTTCTT	0.22
TAGGTCACGTGTATTG	0.04
ATGGACACGTGCAGGG	-0.04
CACGGCACGTGTGTGG	-0.15
TGAAACACGTGAGGAT	0.27
GTGGACACGTGTGTCT	0.09
GGTAACACGTGGTTCT	0.04
TTAAGCACGTGAGAGT	0.21
TGGTACACGTGTCATT	0
TATAGCACGTGTTCGG	-0.1
CAATACACGTGTTGTG	-0.07
GTTGTCACGTGGGCAC	0.07
GTTGTCACGTGAAATG	0.23
TAGTCCACGTGAGTGG	0.06
GGTATCACGTGATTGG	0.27
TTATGCACGTGGTGAC	-0.16
TCTTTCACGTGCTGGT	0.24
GTGGGCACGTGGGCTC	-0.14
TAGGCCACGTGATATG	0.07
TAGGGCACGTGAAAGA	0.18
GACGGCACGTGGGGAA	-0.14
TGTTTCACGTGTGTCG	0.2
TATTGCACGTGAGGTG	0.27

Sequence	relative binding free energy [kcal/mol]
ATGGGCACGTGGAAGC	-0.09
ATGGGCACGTGCGCTT	-0.28
GGTGTCACGTGTAAGA	0.18
ATTCGCACGTGGTAGT	-0.13
TGGTTCACGTGGCGGT	0.34
TTTAGCACGTGCTGGT	-0.01
GTTGGCACGTGCAGGC	-0.07
GGTCTCACGTGATTTG	0.57
TTTATCACGTGAGGGG	0.37
TCGTTCACGTGGGTAG	0.18
ACCGGCACGTGGTAGG	-0.14
TGGTCCACGTGAGGGC	0.22
TCGGACACGTGTGATG	0.1
TTGGACACGTGCAGGG	-0.03
CGGGTCACGTGAGGCG	0.28
TAATTCACGTGTCGTA	0.19
GTGGACACGTGTTGGC	0.04
GTAGTCACGTGGGATC	0.15
GCTTTCACGTGAAGGT	0.36
TAGAGCACGTGTCGTT	-0.07
GTAAGCACGTGGGATC	-0.01
ATGTGCACGTGTGATC	0.15
GGTAGCACGTGATGGT	0.17
GCGGTCACGTGCGGAG	0.13
GGTTGCACGTGAAAAT	0.35
AGAGGCACGTGCGGTT	0.04

Sequence	relative binding free energy [kcal/mol]
TTCTTCACGTGTTACG	0.21
TATACCACGTGTTTTT	-0.08
GCATTCACGTGCTGTG	0.39
TTTAGCACGTGATACG	-0.08
GGAATCACGTGGTATT	-0.02
CGGGACACGTGTATTG	0.09
ATCTGCACGTGTAGAG	0.12
TGGGCCACGTGTTTCT	0.04
CTAGTCACGTGATTTT	0.23
TTTGTCACGTGCAATG	0.12
GGGTGCACGTGGTGTC	-0.11
TGGGTCACGTGCGCGA	-0.09
GGTCTCACGTGCGGGA	0.14
TAGGGCACGTGTCTAA	-0.07
TAAAGCACGTGAGTTG	0.23
AGGCGCACGTGATTGG	-0.09
CGGGACACGTGGTATA	0.04
AGTTACACGTGGGGCA	0.01
GGAGGCACGTGGCCGG	-0.22
ACAGTCACGTGGGTGT	-0.21
GTTAGCACGTGTGAGA	0.07
GGATCCACGTGTGGTA	0.02
GAGGTCACGTGGCGTT	0.02
GTAGGCACGTGTATTT	0.04
TTCGGCACGTGTGTTA	0.01
CTGTACACGTGGCGGT	0.01

Sequence	relative binding free energy [kcal/mol]
GTATACACGTGATTGG	0.22
TAGTACACGTGAAATG	0.4
GGGGACACGTGGCAGG	-0.06
AACGACACGTGGTTGG	0.05
TGCGTCACGTGTCAGG	0.04
AGTGACACGTGGTGTA	-0.18
TTCAGCACGTGGAGGT	0.06
GAAGTCACGTGTTACG	0.41
GGGGCCACGTGAGGCA	0.08
TTAGACACGTGGTTGA	-0.07
GTGATCACGTGATCTG	0.29
GGGTTCACGTGTAAGT	0.21
AGTGTCACGTGTTGCT	0.02
GTTGCCACGTGATGTA	0.12
ATTATCACGTGTTTTG	0.12
TAGATCACGTGCTGGA	0.1
GGTTTCACGTGAAAGT	0.55
GACTTCACGTGGGTTG	0.33
CTGAGCACGTGATAGT	-0.01
TTATTCACGTGCAGTG	0.08
TTAGACACGTGAAGTA	0.29
TTACGCACGTGTTGGT	-0.02
TGAGGCACGTGTGTTG	-0.1
GTTTGCACGTGGACAT	0.04
GGTAACACGTGGAGTA	-0.03
ATGAGCACGTGAGTTG	0.05

Sequence	relative binding free energy [kcal/mol]
CAAGGCACGTGGAGTG	-0.17
TGGTACACGTGTAGTA	0.07
TGTATCACGTGGAAGA	0.07
TCGTCCACGTGGTTTT	0.11
TTGTGCACGTGCTGTA	-0.15
TGTATCACGTGCGATT	0.28
TTGGGCACGTGAGTTT	0.16
ATCATCACGTGGTTAT	0.1
CTAAGCACGTGTAAGG	0.08
AAAGGCACGTGATTAG	0.07
TGTAGCACGTGCTCGG	-0.1
CAATTCACGTGGTGTT	0.15
AAGGCCACGTGGGGTA	-0.24
TGGTGCACGTGTTATT	0.02
TGTGGCACGTGCTAGT	-0.15
TCTAGCACGTGATGGG	0.16
TGTAGCACGTGGGCAT	-0.26
TATGGCACGTGCTGAG	-0.06
TTATGCACGTGATGTC	0.17
GAGAGCACGTGAGGGC	0.16
GCTGACACGTGTGGTA	0.13
TGCGACACGTGATAGT	0.15
CAGTTCACGTGAGAGT	0.48
TGGCGCACGTGTGTAA	-0.06
AGGGTCACGTGATCTT	0.19
TTATTCACGTGGTGTA	0.14

Sequence	relative binding free energy [kcal/mol]
ATTATCACGTGTAAAT	0.26
AGATTCACGTGGGACG	0.13
ACTGCCACGTGTTTGG	0.06
GATAACACGTGCGGGG	0.02
TAATTCACGTGTTGTT	0.34
CTTGGCACGTGAGCTG	0.12
AGCGCCACGTGGTGGG	-0.3
GTGAGCACGTGTGATT	0.04
AATTTCACGTGGAAAT	0.29
CGGGGCACGTGTCGGG	-0.1
GTAATCACGTGACGGT	0.22
AGTGTCACGTGAGTTT	0.28
TATCTCACGTGTGTGT	0.12
TCGGTCACGTGCTAGG	0.02
TAATTCACGTGTAGGA	0.36
AATGACACGTGGGTAG	0.01
TATAGCACGTGAGTAT	0.1
TTGTTCACGTGGTTGC	0.21
GGTATCACGTGGACGT	0.06
AGTTCCACGTGTTATT	0.15
CTTGCCACGTGGATGG	-0.07
TAGGCCACGTGGTTGC	-0.07
